Among all 310,000 compounds or so, about 11,000 (3.5%) were called active. This list was built around the results that the source calls inconclusive (neither active nor inactive); the mix of calls is not that of the screen. The call rests on the fitted dose curve; in most records, active means well fitted inhibition curve with a large enough effect; inconclusive means small, poorly fitted or top-dose-only effect, or effect the other way; inactive means flat fitted curve, though single readings scatter. Potencies of inconclusive entries are left out as doubtful fits.
test: VP16 counterscreen qHTS for inhibitors of ROR gamma transcriptional activity; settings: Drosophila S2 Gal4-VP16 UAS-luciferase, luminescence, 20 h; series mostly up to 53.6 µM;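 further: Gal4-VP16 expression switched on by copper sulfate through the metallothionein promoter; nearly all actives have a fitted effect of over 50% in size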
Potency means the concentration at half of the fitted maximal effect; tags describe the fitted curve by direction and shape.

| SMILES | Potency |
| --- | --- |
| O=C(N/N=C/C=C\c1cccc([N+](=O)[O-])c1)c1cccnc1 | inconclusive [inhibitor, single point] |
| C=CCNC(=O)/C(C#N)=C\c1cc(Cl)c(OCC)c(OC)c1 | inconclusive [inhibitor, single point] |
| COc1ccc(CCN(C)C(=O)CSc2ncnc3sccc23)cc1OC | inconclusive [activator, single point] |
| Oc1ccccc1-c1nnc(-c2ccc(C(F)(F)F)cc2)o1 | active: 6.31 µM |
| COC(=O)C1=NOC2(C=C(Br)C(OC)=C(Br)C2=O)C1 (stereo not given) | active: 2.51 µM |
| Cc1cc(NC(=S)N(CCN2CCOCC2)Cc2ccccc2F)ccc1Cl | inconclusive [inhibitor, single point] |
| CS(=O)(=O)c1nc(-c2ccccc2)cc(C(F)(F)F)n1 | active: 1.58 µM |
| Cc1cc(C)n(CCNS(=O)(=O)c2ccc(C)c(C)c2)n1 | inactive |
| O=C(O)c1ccc2c(c1)C(=O)N([C@]1(C(=O)O)C[C@H]1c1ccccc1)C2=O | inactive |
| O=C(CSCc1ccc(Cl)cc1Cl)Nc1ccccc1C(=O)Nc1ccc(C(=O)O)cc1 | inconclusive [inhibitor, single point] |
| Cc1occc1C(=O)N/N=C/C=C/c1ccccc1 | inconclusive [inhibitor, single point] |
| Cc1ccc(C2=CC(c3ccc(N(C)C)cc3)n3nnnc3N2)cc1 (stereo not given) | inconclusive [inhibitor, single point] |
| CC(C(=O)NCc1ccccc1Cl)N1C(=O)c2ccccc2C1=O (stereo not given) | inactive |
| O=C(Nc1ccc(S(=O)(=O)NCC2CCCO2)cc1)c1ccc(F)cc1 (stereo not given) | inconclusive [inhibitor, single point] |
| C=CCNC(=S)N(CC=C)C1CCS(=O)(=O)C1 (stereo not given) | inactive |
| COc1ccc(/C(C)=N/Nc2ccccc2Cl)c(O)c1 | inconclusive [activator, partial curve] |
| O=C(CCOc1ccccc1)Nc1ccnn1C1CCN(CCc2ccccc2)CC1 | inactive |
| O=C(CSc1nnc(-c2ccccc2)n1-c1ccc(Cl)cc1)NNC(=S)Nc1ccccc1 | inconclusive [inhibitor, partial curve, poor fit] |
| Cc1[nH]c2ccccc2c1C(c1ccncc1)N1CCN(c2ccc(F)cc2)CC1 (stereo not given) | inconclusive [inhibitor, single point] |
| CCN(Cc1ccccc1)C(c1ccc(Cl)cc1)c1nnnn1C(C)(C)C (stereo not given) | inconclusive [inhibitor, single point] |
